In article PMC4646629:
Read-outs that look alike come from different tables or passages of the source. These are yes or no findings as the source states them, for the method shown. For some assays here: Binding seen in cells or lysates may run through a third protein. Some results given as binding are weak or reduced against the parent protein; the word gives no strength. For some assays here: Where a sequence is shown, tags or fusion partners need not be part of it.

By UniProt entry, the sequences of proteins in these tests, tags left out.
UniProt Q9FFG0: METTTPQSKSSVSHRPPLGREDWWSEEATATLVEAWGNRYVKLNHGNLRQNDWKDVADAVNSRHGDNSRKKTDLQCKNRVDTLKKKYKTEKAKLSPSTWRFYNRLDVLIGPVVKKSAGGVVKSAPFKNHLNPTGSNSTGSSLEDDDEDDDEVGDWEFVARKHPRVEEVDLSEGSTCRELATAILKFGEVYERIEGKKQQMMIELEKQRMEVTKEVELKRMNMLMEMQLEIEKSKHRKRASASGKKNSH
UniProt Q39255: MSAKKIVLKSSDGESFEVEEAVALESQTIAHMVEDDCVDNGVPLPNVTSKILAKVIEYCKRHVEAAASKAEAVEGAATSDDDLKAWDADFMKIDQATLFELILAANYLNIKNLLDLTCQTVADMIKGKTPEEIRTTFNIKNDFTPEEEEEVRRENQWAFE

What was measured:
[1] = target: T1, cYFP-VirF (Agrobacterium) (UniProt P15597); assay: split reporter; BiFC: nYFP and cYFP fusions coexpressed in microbombarded N. benthamiana leaves, confocal microscopy 48 h later
T1 sequence: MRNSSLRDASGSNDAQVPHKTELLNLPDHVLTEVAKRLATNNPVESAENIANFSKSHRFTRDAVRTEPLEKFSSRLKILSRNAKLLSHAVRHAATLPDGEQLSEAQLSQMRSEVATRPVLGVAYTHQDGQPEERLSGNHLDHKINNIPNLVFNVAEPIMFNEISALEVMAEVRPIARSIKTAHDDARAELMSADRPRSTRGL

[2] = target: LexA-VirFdel1 (Agrobacterium) (UniProt P15597); assay: two-hybrid; LexA baits and Gal4AD preys in S. cerevisiae TAT7 (L40-ura3); 2 days at 30°C on medium without leucine, tryptophan and histidine with 6 mM 3-AT; histidine prototrophy
[3] = target: LexA-VirFdel1 (Agrobacterium) (UniProt P15597); assay: as above; remark: listed apart in the source
[4] = target: T2, cYFP-VBF (Arabidopsis) (UniProt Q9C7K0); assay: split reporter; BiFC: nYFP and cYFP fusions coexpressed in microbombarded N. benthamiana leaves, confocal microscopy 48 h later
T2 sequence: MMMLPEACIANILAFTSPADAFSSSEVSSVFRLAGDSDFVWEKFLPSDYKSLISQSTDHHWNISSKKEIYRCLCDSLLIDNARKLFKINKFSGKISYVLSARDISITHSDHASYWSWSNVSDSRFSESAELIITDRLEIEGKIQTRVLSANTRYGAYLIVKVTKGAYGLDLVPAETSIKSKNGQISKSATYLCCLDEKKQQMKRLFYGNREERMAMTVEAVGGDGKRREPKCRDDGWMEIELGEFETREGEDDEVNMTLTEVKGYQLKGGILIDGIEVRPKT

[5] = target: T1, cYFP-VirF (Agrobacterium); assay: as above; remark: listed apart in the source

nYFP-VFP5 (from UniProt Q9FFG0 1-248)
binding [1]: binds

Arabidopsis ASK1 (from UniProt Q39255 1-160)
binding [2]: binds

B1: Gal4AD-VFP3 (protein, UniProt Q8VZI9 1-249)
chain: METTPETQSKTHRLPAGREDWWSEDATATLIEAWGDRYVNLNRGNLRQNDWKEVADAVNSSHGNGRPKTDVQCKNRIDTLKKKYKTEKAKPLSNWCFFDRLDFLIGPVMKKSSGAVVKSALMNPNLNPTGSKSTGSSLDDDDDDDDDDEEDDDDAGDWGFVVRKHRKVEDVDSSEGSAFRELARSILKLGEAFERIEGKKQQMMIELEKQRMEVAKELELQRMNMLMEMQLELEKSKLGKRRAASGKKL
binding [3]: binds

B2: nYFP-VFP3 (protein, UniProt Q8VZI9 1-249)
chain: METTPETQSKTHRLPAGREDWWSEDATATLIEAWGDRYVNLNRGNLRQNDWKEVADAVNSSHGNGRPKTDVQCKNRIDTLKKKYKTEKAKPLSNWCFFDRLDFLIGPVMKKSSGAVVKSALMNPNLNPTGSKSTGSSLDDDDDDDDDDEEDDDDAGDWGFVVRKHRKVEDVDSSEGSAFRELARSILKLGEAFERIEGKKQQMMIELEKQRMEVAKELELQRMNMLMEMQLELEKSKLGKRRAASGKKL
binding [4]: no binding
binding [5]: binds
